Results published in article PMC6919601, “Identification of Plasmodium dipeptidyl aminopeptidase allosteric inhibitors by high throughput screening” (PLoS ONE, 2019).
Hit rate of the full screen: of about 110,000 compounds, about 230 (0.21%) showed an effect of 50% or more. This is one part of the list.

Each molecule was assayed against DPAP1 (Plasmodium falciparum, UniProt Q8IIJ9) (assay: primary screen, percent inhibition; read by cleavage of a fluorogenic dipeptide substrate; higher = more effect of the substance).
Sequence of DPAP1 (Q8IIJ9 whole entry, looked up): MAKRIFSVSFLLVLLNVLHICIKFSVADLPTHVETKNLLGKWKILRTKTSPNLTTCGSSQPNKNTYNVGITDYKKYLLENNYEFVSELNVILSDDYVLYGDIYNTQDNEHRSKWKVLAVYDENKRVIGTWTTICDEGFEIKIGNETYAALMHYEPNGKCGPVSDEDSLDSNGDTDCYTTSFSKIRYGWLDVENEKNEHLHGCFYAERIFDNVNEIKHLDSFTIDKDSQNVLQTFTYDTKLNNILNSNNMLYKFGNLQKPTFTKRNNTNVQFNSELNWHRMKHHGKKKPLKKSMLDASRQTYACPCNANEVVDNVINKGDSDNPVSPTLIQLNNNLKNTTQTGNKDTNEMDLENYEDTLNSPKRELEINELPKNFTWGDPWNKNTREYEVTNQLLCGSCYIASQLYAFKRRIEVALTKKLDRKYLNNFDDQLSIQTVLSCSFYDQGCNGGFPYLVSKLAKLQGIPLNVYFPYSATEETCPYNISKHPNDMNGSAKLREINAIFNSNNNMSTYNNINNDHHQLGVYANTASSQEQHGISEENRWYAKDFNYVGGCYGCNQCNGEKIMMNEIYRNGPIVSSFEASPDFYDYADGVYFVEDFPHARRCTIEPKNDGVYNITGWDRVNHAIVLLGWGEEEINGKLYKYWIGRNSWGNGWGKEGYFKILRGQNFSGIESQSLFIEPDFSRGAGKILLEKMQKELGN
Parameters: species or system P. falciparum D10 trophozoite lysates; single well
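Further: 30 min substrate incubation versus DMSO and 10 µM JCP410 controls.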

| Compound | % Inhibition @ 10 uM [%] |
| --- | --- |
| Cc1nc2c(C(=O)NC3CCCCC3C)cnn2c(C)c1Cc1cccc(Br)c1 (stereo not shown) | 1.27 |
| COc1ccc(C(=O)c2c(N)c(C#N)c(C)n2-c2ccccc2)cc1 | -0.712 |
| CCOc1ccc(-n2cc3c(c2-c2ccccc2Cl)c(=O)n(C)c(=O)n3C)cc1 | 2.02 |
| c1ccc(-c2nc3cc(Oc4ccc5[nH]c(-c6ccccn6)nc5c4)ccc3[nH]2)nc1 | -2.92 |
| COc1cc(CN2CCN(c3cccc(C)c3C)CC2)cc(Br)c1O | 0.847 |
| CN1CCC/C1=N/C(=S)CN1CCCC1=S | 13 |
| O=C1NCCCC[C@@H]1NC1CCN(Cc2ccccc2)CC1 | -3.6 |
| CCOc1ccc(S(=O)(=O)N(CC(=O)N2CCc3ccccc3C2)c2ccccc2)cc1 | -1.38 |
| CC(C)CCNC(=O)Cn1cc(C=O)c2ccccc21 | -2.72 |
| CCCOc1ccccc1C(=O)N(Cc1ccc(C)cc1)Cc1ccco1 | 4.47 |
| CN(C)CCN(C)Cc1ccc(Br)cc1 | 0.827 |
| C=CCSc1nc2c(c(=O)n(C)c(=O)n2C)n1Cc1ccc(Cl)cc1 | -2.16 |
| COc1c(Cl)cc(Cl)cc1/C=N/C(=O)CC#N | 1.25 |
| COc1ccc(C2CC(C(F)(F)F)n3ncc(C(=O)N(C)CCC#N)c3N2)cc1OC (stereo not shown) | -2.22 |
| O=C(NCc1ccc2c(c1)OCO2)c1cc2c(s1)CS(=O)(=O)C2 | -11.6 |
| O=C(Nc1ccccc1)Nc1cc(Cl)ccc1Cl | -5.68 |
| Cc1ccc(C(=O)N/C(=C\c2ccco2)C(=O)N2CCOCC2)cc1C | 4.09 |
| CC(C)c1cc(C(C)C)c(S(=O)(=O)Nc2cccc(F)c2)c(C(C)C)c1 | -2.55 |
| CCN(Cc1ccccc1)C(=O)c1cnc2ccc(S(=O)(=O)N(C)CCC#N)cc2c1O | 3.04 |
| O=C(Nc1cccc2cccnc12)c1ccc(C(F)(F)F)cc1 | 1.39 |
| CCn1cc(C(=O)Nc2ccccc2C(=O)c2ccccc2)cn1 | -4.18 |
| Cc1cc(C)n2nc(CNS(=O)(=O)c3ccc(C(C)(C)C)cc3)nc2n1 | -5.81 |

| Compound | % Inhibition @ 10 uM [%] |
| --- | --- |
| CCCOc1ccc(C(CC(=O)O)NC(=O)C23CC4CC(CC(C4)C2)C3)cc1 (stereo not shown) | -0.703 |
| O=C(Nc1nc(C23CC4CC(CC(C4)C2)C3)cs1)C(c1ccccc1)c1ccccc1 | 0.962 |
| COc1ccccc1/N=C1\SC(C(=O)Nc2cccc(Cl)c2)CC(=O)N1C (stereo not shown) | -7.69 |
| CCN(CC)CC(C)CNC(=O)c1oc2ccc(S(=O)(=O)N3CC(C)CC(C)C3)cc2c1C (stereo not shown) | 2.05 |
| O=C(/C=C/c1cccc(Cl)c1)c1ccccc1 | -0.519 |
| C=CCc1cc(/C=C2/C(=N)N3OC(C)=CC3=NC2=O)cc(OC)c1OCCOc1ccc(C)cc1 | 0.317 |
| CCCCN(C)CCNC(=O)CN1N=C(c2ccccc2)CCC1=O | 2.18 |
| O=C1CCSc2ccc(Cl)cc21 | -0.256 |
| Cc1nc2cc(-c3cccc(F)c3)nn2c(C)c1CCC(=O)NCCCOC(C)C | -4.1 |
| CCCCN(Cc1cc2cc(OC)ccc2nc1O)S(=O)(=O)c1ccccc1 | 2.62 |
| Cn1c(=O)c2c(-c3ccccc3)n3c4ccccc4nc(C(F)(F)F)c3c2n(C)c1=O | 0.315 |
| CCN1CCN(C(=O)C2CCN(c3nnc(C)c4c(C)n(-c5ccc(Cl)cc5)nc34)CC2)CC1 | -1.41 |
| COc1ccccc1C(=O)CC1(O)C(=O)Nc2ccccc21 (stereo not shown) | 0.161 |
| CC(C)CC(NC(=O)/C(=C/c1ccco1)NC(=O)c1ccc(Br)o1)C(=O)O (stereo not shown) | -4.74 |
| COc1ccccc1CNC(=O)c1cc(-c2cccnc2)nc2ccccc12 | -4.06 |
| COc1cccc(C(=O)Nc2ccccc2C(C)C)c1 | -2.22 |
| Cc1cccc(C(=O)NCCCN(C)C)c1 | -0.0505 |
| COc1ccc(C(=O)Nc2c(C)cccc2C(C)C)c(OC)c1 | 3.27 |
| O=C(O)c1ccc(Nc2nc3c(s2)CCCC3)cc1 | -6.27 |
| COc1ccc(S(=O)(=O)N2CCCc3ccccc32)cc1 | -2.6 |
| O=C1CC(NCC(O)c2ccccc2)C(=O)N1c1ccc(Cl)cc1 (stereo not shown) | -1.82 |
| CC(C)(O)C#Cc1ccc(C(=O)N2CCN(c3ccccn3)CC2)cc1 | -4.93 |

| Compound | % Inhibition @ 10 uM [%] |
| --- | --- |
| COc1cc(OC)cc(C2=N/C(=C\C(Cl)=C\c3ccccc3)C(=O)O2)c1 | -5.79 |
| CCOc1ccc(Oc2cc(C)nc(SC)n2)nn1 | 3.93 |
| CCC(C)NC(=S)Nc1ncccc1C(=O)OC (stereo not shown) | 1.07 |
| Cc1ccc(N(CC(=O)N2CCN(c3ccccc3)CC2)S(=O)(=O)c2ccccc2)c(C)c1 | -4.13 |
| C1CCC2(C1)OCC1(CO2)COC2(CCCC2)OC1 | 4.49 |
| CCCOc1ccc(CNC(=O)CCC(=O)n2ncc3cc(C)ccc32)cc1 | 3.84 |
| Nc1c2c(nn1-c1ccccc1)-c1ccccc1CC21CCCC1 | 1.4 |
| O=C(NC1CCC(NC(=O)c2ccc(F)cc2)CC1)c1ccc(F)cc1 (stereo not shown) | 0.528 |
| CCN(CC)c1ccc(NC(=O)c2ccccc2C(=O)O)cc1 | -7.76 |
| Nc1c(C(=O)Nc2ccc(F)c(F)c2)sc2nc(-c3ccc4c(c3)OCO4)ccc12 | -1.6 |
| CC(C)c1ccc(CN2CCN(c3ccccn3)CC2)cc1 | 3.25 |
| COc1ccc(Cn2c(C(=O)O)c(CNCC(C)c3ccccc3)c3ccccc32)cc1 (stereo not shown) | -1.97 |
| COc1cc(NC(=O)c2ccccc2Cl)c2ncccc2c1 | -1.28 |
| CC(C)C(O)(CC#CCN1CCCC1)c1ccccc1 (stereo not shown) | -0.902 |
| O=C(O)CCn1ncc2ccccc21 | 3.44 |
| O=C(Cn1nc(-c2ccccc2)ccc1=O)NC1CCCCCC1 | -2.99 |
| O=C(NCc1ccccc1)C(Cc1ccccc1)N1C(=O)c2ccccc2C1=O (stereo not shown) | -0.369 |
| O=[N+]([O-])c1ccc(Cl)c(CN2CCC(O)CC2)c1 | -1.77 |
| C=CCN1C(=O)C(O)=C(C(=O)c2ccc(OC)cc2)C1c1ccc(F)cc1 (stereo not shown) | -3.45 |
| CCCn1c2ccccc2c2cnn(CC(=O)NCCCN(CC)Cc3ccccc3)c(=O)c21 | 2.13 |
